Results: article PMC4242493
This is one part of the list. The list includes weakly bound sequences.

biological target: MaxL homodimer (UniProt P61244); assay: universal protein-binding microarray (PBM); settings: PBS-based mixture, 10 nM His-tagged protein dimer, 2% milk, 200 ng/uL BSA, 50 ng/uL salmon testes DNA, 0.02% TX-100; detection with Alexa 488 anti-His …; high values mean tight binding; most listed sequences are background and not binding sites; double strand, one strand shown
Chain of UniProt P61244 (P61244 whole entry): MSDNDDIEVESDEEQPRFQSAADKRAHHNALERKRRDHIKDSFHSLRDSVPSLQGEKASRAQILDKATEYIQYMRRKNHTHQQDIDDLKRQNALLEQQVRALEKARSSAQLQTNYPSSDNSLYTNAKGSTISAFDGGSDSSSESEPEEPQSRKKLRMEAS

| Sequence | binding signal (normalized occupancy) |
| --- | --- |
| GCGTCGCC | 0.07 |
| TACGGCGA | 0.0706 |
| CAGCACCG | 0.0748 |
| AAATTACT | 0.0683 |
| CGTATCCA | 0.0765 |
| CAGCTACC | 0.0756 |
| GCGCCGTA | 0.0682 |
| ACGACTAA | 0.0727 |
| AACCCGGA | 0.0664 |
| ACTGGGTC | 0.0711 |
| CGGTGTTA | 0.0761 |
| AGCAGCTA | 0.0659 |
| AGATGGGC | 0.0703 |
| ACGCATAG | 0.0818 |
| AGCCTCTG | 0.0661 |
| ACGAGACG | 0.0793 |
| CGACGGCC | 0.0667 |
| AGAAGGCC | 0.0678 |
| CTACCCGC | 0.0717 |
| CGACATGC | 0.0992 |
| GACTAACC | 0.0778 |
| ACAACGAC | 0.0726 |
| ATGAGGAG | 0.0866 |
| AATGTCTA | 0.0754 |
| CCAGCTTA | 0.071 |

| Sequence | binding signal (normalized occupancy) |
| --- | --- |
| CCAGACTA | 0.071 |
| ACCTAGAG | 0.0718 |
| CACTATGG | 0.0772 |
| CGTCGTGC | 0.0826 |
| GGCTAATA | 0.0753 |
| CGTTAAAG | 0.0759 |
| CGAGGCCC | 0.0761 |
| GTTGGCTA | 0.0693 |
| ATGCTCTA | 0.0811 |
| GCGGCCGC | 0.0707 |
| CAATTGGA | 0.0699 |
| GGAACGAC | 0.0779 |
| ACAAAGCC | 0.0706 |
| ACCCGCGC | 0.083 |
| ATAGATAT | 0.0828 |
| GTGTTCAA | 0.0805 |
| ACTTACCT | 0.0757 |
| AAATCATG | 0.0871 |
| CAGTAACC | 0.0731 |
| AATCTACC | 0.0765 |
| GAGTACCC | 0.0768 |
| GCCTAAGA | 0.0739 |
| AAATATGC | 0.0807 |
| GCTCTAAA | 0.0685 |
| ATTTGAGA | 0.0896 |

| Sequence | binding signal (normalized occupancy) |
| --- | --- |
| CCTTTCCC | 0.0725 |
| AGTGGTTG | 0.0748 |
| CAACCCCA | 0.0822 |
| AATCCTCA | 0.0757 |
| TCAGCAGA | 0.0717 |
| CCATAGAG | 0.0709 |
| AAATTCGA | 0.0696 |
| CATCACGA | 0.0811 |
| AATATGTA | 0.0801 |
| CTAGCGGC | 0.0675 |
| GCTCGTAC | 0.0774 |
| AAAGAGGA | 0.0738 |
| GCGTGGTA | 0.111 |
| ACACCTGT | 0.0912 |
| AGCGACCG | 0.0667 |
| AGGGACTG | 0.07 |
| GATGGCCA | 0.0755 |
| TCGGACGA | 0.0696 |
| CAGACCCG | 0.07 |
| TACTTACA | 0.0777 |
| AGTTTGAT | 0.0736 |
| AGGACGCG | 0.0691 |
| GCTGCGGA | 0.0698 |
| CCACGGTA | 0.0754 |
| CAACCTAC | 0.0774 |

| Sequence | binding signal (normalized occupancy) |
| --- | --- |
| TCGGTAAA | 0.0756 |
| CAGTGTCC | 0.0763 |
| ATAGGTTG | 0.0765 |
| ACTCGGCG | 0.0704 |
| GTCGCCCA | 0.0715 |
| GAACCCCC | 0.0764 |
| ACAGAGGG | 0.0744 |
| AGCACAAT | 0.0813 |
| ACGGTCCT | 0.0698 |
| ATGAGTCA | 0.082 |
| ATCCCACA | 0.0819 |
| CACGGTAG | 0.0752 |
| AATGGTGT | 0.0809 |
| ATGGCGGA | 0.0751 |
| AAACGTCC | 0.0718 |
| AGGGCGCA | 0.0704 |
| ACCGTTAC | 0.0748 |
| TACCCGCA | 0.0749 |
| GGGCCCCC | 0.0684 |
| CTCGGTCA | 0.0733 |
| ACTTGGTG | 0.0764 |
| AGATCTAC | 0.08 |
| CACAGTGA | 0.0715 |
| GCCGGCGC | 0.0701 |
| GCAAGATA | 0.0778 |

| Sequence | binding signal (normalized occupancy) |
| --- | --- |
| TCTGAAAA | 0.0722 |
| GCCTGGTA | 0.077 |
| TATTCGGA | 0.0723 |
| CAGCTGAC | 0.0699 |
| AGAACGCG | 0.0788 |
| CCTACTAC | 0.0776 |
| ATTATGCA | 0.0808 |
| ACCAATAT | 0.0794 |
| ACTCAACA | 0.0776 |
| AGCTACAC | 0.0732 |
| AGCAGGCA | 0.076 |
| AGGACTGG | 0.073 |
| AAGCTTCC | 0.068 |
| GAACCTAC | 0.0739 |
| ACCGGGTG | 0.0789 |
| ACCTTGAC | 0.0773 |
| AGAGTCTA | 0.0689 |
| CATCGGGC | 0.0726 |
| CGGAGTTC | 0.0674 |
| CTGAGCCA | 0.0705 |
| CCTCTGGA | 0.0723 |
| TCGAAAGA | 0.0725 |
| ACCCAGAC | 0.0678 |
| AAAAGCGA | 0.0668 |
| AAATGCTA | 0.0773 |

| Sequence | binding signal (normalized occupancy) |
| --- | --- |
| ATTACTGC | 0.0709 |
| AGCAAGCA | 0.0713 |
| GTGCCGCA | 0.0837 |
| ACGAGTCT | 0.0791 |
| CAGAACGA | 0.0776 |
| AAACATGT | 0.0983 |
| CCCCTCAC | 0.0803 |
| ATTTCTTC | 0.0749 |
| ACGGAGAA | 0.0698 |
| GCCTCCAC | 0.0787 |
| GAGAAACC | 0.0763 |
| AGCTGTCC | 0.0691 |
| CTCACCCC | 0.0824 |
| AGCCATGG | 0.0832 |
| CATGGAGC | 0.081 |
| GCAGTATA | 0.0755 |
| CAGACAGG | 0.0724 |
| AGAGCATC | 0.0755 |
| AAAGGCGG | 0.0698 |
| ACAACGCC | 0.0737 |
| GAGGCATC | 0.0704 |
| ATCGTGGA | 0.084 |
| ATCGGCTG | 0.0688 |
| CAGTAGCG | 0.0653 |
| AAGCAGCC | 0.0714 |

| Sequence | binding signal (normalized occupancy) |
| --- | --- |
| AAACTCGT | 0.0762 |
| GGATACCA | 0.0777 |
| AATCACAG | 0.0732 |
| GGATGGAA | 0.0785 |
| ATGCGAGG | 0.0841 |
| ACGCAGCC | 0.0737 |
| CGTGGTCC | 0.0896 |
| GATACGCA | 0.0746 |
| AATTTCAC | 0.0751 |
| AACGAGGC | 0.0809 |
| GCTTGTAC | 0.0767 |
| CTGTGGGA | 0.0765 |
| CTGCCAGA | 0.0702 |
| TGATGGCA | 0.08 |
| AGACGTGC | 0.0761 |
| ACGGGATC | 0.0775 |
| GCTCTTTA | 0.0666 |
| ACGACAAC | 0.0759 |
| CACATGGG | 0.166 |
| AGGTCTTG | 0.0734 |
| ATTTCACG | 0.0776 |
| GCCCTACA | 0.0744 |
| GCGACTTA | 0.0716 |
| TTAGTGAA | 0.0767 |
| CAAGCGCG | 0.0759 |

| Sequence | binding signal (normalized occupancy) |
| --- | --- |
| CGGTACTC | 0.07 |
| CAGCCCGA | 0.0683 |
| ATAGGGAT | 0.0812 |
| CCCAGGCG | 0.0679 |
| CTACCCCA | 0.0788 |
| CTTTTTCC | 0.0727 |
| GAATCCAA | 0.0757 |
| AAACATTA | 0.0779 |
| AGCCAAGC | 0.0683 |
| ATTAACTC | 0.0796 |
| CCGACCGC | 0.0735 |
| GTACTACA | 0.0864 |
| CATCCAAA | 0.0785 |
| AGGCCTTG | 0.0684 |
| GGAATCGA | 0.076 |
| ATTTGAAA | 0.0746 |
| ATCGCTAG | 0.0737 |
| ATCTCACC | 0.0821 |
| AATCACTA | 0.0729 |
| CCAAGCGC | 0.0732 |
| AACAGTAG | 0.0715 |
| GACGGGCC | 0.0688 |
| ACTAGGGC | 0.0695 |
| TCCAGGAA | 0.0728 |
| GCTATTTA | 0.0794 |

| Sequence | binding signal (normalized occupancy) |
| --- | --- |
| GGCTTAGA | 0.0745 |
| GTGAGACA | 0.081 |
| CTGACGCA | 0.0694 |
| GTACAGAC | 0.071 |
| CATATCAA | 0.0794 |
| CGGGAAAA | 0.0693 |
| AGGTAGTA | 0.0777 |
| CCGGGTAC | 0.068 |
| AGTCTTCA | 0.072 |
| CACGGGCC | 0.0713 |
| TAGTGGGA | 0.0758 |
| CAGCGTCG | 0.0687 |
| CTGGAGAA | 0.0729 |
| CCTGGCAA | 0.0698 |
| AGTCCCAG | 0.065 |
| CAGTGCAA | 0.0734 |
| AAGTGCCA | 0.0704 |
| AGCGGCGC | 0.0631 |
| CCACGCGG | 0.32 |
